PubChem BioAssay (NCI)
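Dose response: 5 concentrations. Exposure: 48 h. Format: 96-well plates. Endpoint: linear interpolation; highest concentration if not reached. GI50 is the concentration that inhibits growth by half. TGI marks complete inhibition of growth.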

These molecules were tested on NCI-H322M lung (assay: NCI-60 cell line screen, 48 h).
For `CN(C)c1ccnc(CNCCSC2(c3ccccc3)c3ccccc3C=Cc3ccccc32)c1`, the GI50 was 2.79 µM and the TGI was 16.9 µM. `C=C1CC[C@@H]2[C@]3(C)COC(c4cn[nH]c4-c4cccc(Cl)c4)O[C@@H]3CC[C@@]2(C)[C@@H]1C/C=C1/C(=O)OCC1O` (stereo partly specified) gave a GI50 of 10.4 µM and a TGI of 22.1 µM. With `Cc1ccc(C2CC(c3ccc(S(=O)(=O)NCCNc4nc(Nc5ccc(F)cc5)nc(N(C)C)n4)cc3)=Nc3c(N)nc(N)nc3N2)cc1` (stereo unspecified) the GI50 was > 100 µM and the TGI was > 100 µM.
